# Out of some 230,000 compounds screened, about 3,600 (1.6%) were called active. Inconclusive results, whose numbers are uncertain, are shown with a selection of clear calls. The call rests on the fitted dose curve; in most records, active means well fitted inhibition curve with a large enough effect (not every such curve was filed as active); inconclusive means small, poorly fitted or top-dose-only effect, or another doubt; inactive means no such curve, though single readings can be large or run the other way. Potencies of inconclusive entries are doubtful fits and often do not repeat.
# Biological target: Lysine-specific demethylase 4E (Homo sapiens) (UniProt B2RXH2)
# Assay: qHTS Assay for Inhibitors of Human Jumonji Domain Containing 2E (JMJD2E)
# Settings: JMJD2E catalytic domain, FDH-coupled NADH fluorescence (FDH is formaldehyde dehydrogenase); series mostly up to 57.1 µM
# Further: nearly all actives have a fitted effect of over 50% in size.
# Potency means the concentration at half of the fitted maximal effect; tags describe the fitted curve by direction and shape.
# Sequence of UniProt B2RXH2 (B2RXH2 whole entry, looked up, the tested form may be a part): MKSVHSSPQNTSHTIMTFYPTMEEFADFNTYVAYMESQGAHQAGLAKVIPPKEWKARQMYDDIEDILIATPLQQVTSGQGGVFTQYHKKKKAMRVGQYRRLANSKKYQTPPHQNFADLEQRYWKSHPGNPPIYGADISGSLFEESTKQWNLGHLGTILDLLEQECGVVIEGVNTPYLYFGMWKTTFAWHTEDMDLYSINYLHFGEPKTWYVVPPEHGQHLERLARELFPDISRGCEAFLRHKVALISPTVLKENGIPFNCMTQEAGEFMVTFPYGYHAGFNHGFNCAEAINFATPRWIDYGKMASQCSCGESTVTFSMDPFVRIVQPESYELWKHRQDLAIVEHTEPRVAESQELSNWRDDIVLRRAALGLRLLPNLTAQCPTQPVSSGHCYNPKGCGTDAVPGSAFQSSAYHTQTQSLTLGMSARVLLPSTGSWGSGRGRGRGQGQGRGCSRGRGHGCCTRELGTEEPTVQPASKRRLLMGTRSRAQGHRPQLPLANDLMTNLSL
row,Compound,Potency
1,COC(=O)CCCC[C@@H]1SC[C@@H]2NC(=O)N[C@@H]21,inactive
2,CC(C)(C)c1cc[n+](C2=C([O-])c3ccccc3C(=O)/C2=N\S(=O)(=O)c2cccs2)cc1,"inconclusive: 15.8 µM [inhibitor, single point]"
3,CC(=O)Nc1ccc(-c2cc3ccccc3o2)cc1,"inconclusive: 14.1 µM [inhibitor, partial curve]"
4,CCCn1c(-c2ccc(F)cc2)nc2c(NC3CCN(Cc4ccccc4)C3)nc(C)nc21 (centres undefined),"inconclusive: 25.1 µM [inhibitor, partial curve]"
5,Cc1sc(NC(=O)CCCC(=O)O)c(C(N)=O)c1-c1ccccc1,"inconclusive: 39.8 µM [inhibitor, single point]"
6,O=C(Cn1nnc(-c2ccccc2F)n1)OCC(=O)c1ccccc1,inactive
7,Nc1c(C(=O)OCC2CCCO2)c2nc3ccccc3nc2n1C1CCCC1 (centres undefined),"inconclusive: 31.6 µM [inhibitor, partial curve]"
8,O=C(CSc1nnc(-c2ccccc2)n1-c1ccc(Cl)cc1)NC1CCS(=O)(=O)C1 (centres undefined),inactive
9,O=C(Nc1ccc2snnc2c1)Nc1cccc2ccccc12,inactive
10,COc1ccc(/C=C/C(=O)NCCCc2ccccc2)cc1OC,"inconclusive: 25.1 µM [inhibitor, partial curve]"
11,O=C1c2cccc(OCC(=O)N3N=C(c4cccs4)CC3c3ccc(F)cc3)c2CCN1Cc1cccnc1 (centres undefined),"inconclusive: 28.2 µM [inhibitor, partial curve]"
12,CCc1ccc(C2CC(=O)Nc3c2c(=O)nc2c(C)cccn32)cc1 (centres undefined),"inconclusive: 31.6 µM [inhibitor, partial curve]"
13,NNC(=O)c1ccc(Cn2cc(Cl)cn2)cc1,"inconclusive: 39.8 µM [inhibitor, single point]"
14,COc1ccc(OC)c(-c2csc(N(Cc3ccco3)C(=O)c3ccco3)n2)c1,inactive
15,O=C(Nc1cccnc1)c1cc2c(ccc3ccccc32)o1,"inconclusive: 35.5 µM [inhibitor, single point]"
16,CC(=O)O[C@@H]1[C@H](OC(=O)CC(C)C)c2c(ccc3ccc(=O)oc23)OC1(C)C,"inconclusive: 35.5 µM [inhibitor, single point]"
17,C=CCNC(=S)N1CCC(C(=O)c2ccc3c(c2)OCCO3)CC1,"inconclusive: 39.8 µM [inhibitor, single point]"
18,CCC/C(O)=C1\C(=O)CC(C)(C)CC1=Nc1ccccc1O,"inconclusive: 22.4 µM [inhibitor, partial curve]"
19,CN(C)C(=O)c1ccc(-c2cc(C(F)(F)F)n(C)n2)s1,inactive
20,CCCCN(C)CCCNC(=O)c1cn(CC)c2ccc(S(=O)(=O)N3CCc4ccccc4C3)cc2c1=O,"inconclusive: 8.91 µM [inhibitor, partial curve]"
21,CC1Sc2ccccc2N(CC(=O)N(C(C)C)C(C)C)C1=O (centres undefined),inactive
22,Cc1cc(Oc2ncccc2[N+](=O)[O-])c2cc(Cl)ccc2n1,inactive

row,Compound,Potency
1,Cn1cccc1/C=N/NC(=O)c1cc(-c2cccs2)nc2ccccc12,"inconclusive: 25.1 µM [inhibitor, single point]"
2,O=C1Nc2ccc(S(=O)(=O)N3CCCCCC3)c3cccc1c23,"inconclusive: 39.8 µM [inhibitor, single point]"
3,FC(F)(F)c1cc(-c2ccco2)nc2ncnn12,"inconclusive: 25.1 µM [inhibitor, partial curve]"
4,CN(C)S(=O)(=O)c1ccc(C(=O)Nc2nc(-c3cc4ccccc4o3)cs2)cc1,"inconclusive: 28.2 µM [inhibitor, partial curve]"
5,CN1CCN(NC(=O)c2ccc(S(=O)(=O)N3CC4(C)CC3CC(C)(C)C4)cc2)CC1 (centres undefined),inactive
6,CCOC(=O)c1sc(N)c(C(=O)OC)c1C,"inconclusive: 39.8 µM [inhibitor, single point]"
7,O=C(COC(=O)COc1ccc(Cl)cc1)Nc1ccc(F)c([N+](=O)[O-])c1,"inconclusive: 39.8 µM [inhibitor, single point]"
8,Nc1ccc(Nc2ccccc2N)cc1,"inconclusive: 20 µM [inhibitor, partial curve]"
9,O=C(NNC(=O)c1cc(-c2ccc(Cl)c(Cl)c2)nc2ccccc12)Nc1ccccc1,inactive
10,CN1CCN(c2nc(-c3ccccc3)c3cc(Cl)ccc3n2)CC1,"inconclusive: 5.62 µM [inhibitor, single point]"
11,COCc1cc(=O)n2[nH]c(-c3ccsc3-n3c(C)ccc3C)cc2n1,"inconclusive: 22.4 µM [inhibitor, partial curve]"
12,COCCN(Cc1cc2cc3c(cc2[nH]c1=O)OCO3)C(=O)c1cccs1,"inconclusive: 3.55 µM [inhibitor, full curve]"
13,Cc1nn(CC(O)Cn2c3c(c4ccccc42)CCN(C)C3=O)c(C)c1Br (centres undefined),"inconclusive: 28.2 µM [inhibitor, single point]"
14,O=C1CCC(/C=C/c2ccccc2)=NN1Cc1ccccc1,"inconclusive: 0.891 µM [inhibitor, single point]"
15,CC1CCCCN1c1ncnc(N)c1[N+](=O)[O-] (centres undefined),inactive
16,COc1ccc(O)c(C(=O)c2cnc3c(c2)CN(C)C(=O)N3)c1,"inconclusive: 31.6 µM [inhibitor, single point]"
17,O=C(/C=C/c1ccc2c(c1)OCO2)Nc1ccc(Cl)cn1,"inconclusive: 3.16 µM [inhibitor, single point]"
18,Cc1cc(=O)oc2cc(OCC(=O)OCC(=O)Nc3ccccc3Br)ccc12,"inconclusive: 28.2 µM [inhibitor, partial curve]"
19,COC(=O)c1c(NC(=O)CCCC(=O)O)sc2c1CCC2,"inconclusive: 28.2 µM [inhibitor, single point]"
20,Cn1c(=O)c(=O)n(C)c2cc(S(=O)(=O)CCC(=O)N3CCOCC3)ccc21,"inconclusive: 39.8 µM [inhibitor, single point]"
21,O=C(Nc1ccc2oc(-c3ccccc3F)nc2c1)c1ccco1,"inconclusive: 28.2 µM [inhibitor, partial curve]"
22,CC(C)(C)S(=O)(=O)c1cnc2c(-c3ccsc3)cnn2c1N,"inconclusive: 28.2 µM [inhibitor, partial curve]"
